Experimental findings from patent US20250297021A1 (SHANDONG SIMCERE BIOPHARMACEUTICAL CO NO 1, published 2025) are described below.

Experiment [1] has as its target T1, human BCMA-His protein (human, UniProt Q02223 1-54).
T1 construct: Bought protein; also called human BCMA protein; BCMA antigen protein; not shown: His tag
T1 sequence (looked up): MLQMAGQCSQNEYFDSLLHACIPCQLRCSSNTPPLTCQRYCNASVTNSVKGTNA
Kind of experiment: competition ELISA vs hAPRIL-biotin on coated human BCMA; antibody 0.14 nM. As for the experimental part:
(§1) The antigen protein was diluted with PBS to a final concentration of 1 μg/mL, and then added to a 96-well ELISA plate at 50 μl per well. The plate was sealed with a plastic film and incubated overnight at 4° C., the plate was washed twice with PBS the next day, and then a blocking solution [PBS+2% (w/v) BSA] was added for blocking at room temperature for 2 h. The blocking solution was discarded, the plate was washed 3 times with PBS, and 200 nM BCMA human-mouse chimeric antibody diluted gradiently or negative control antibody was added at 50 μl/well. hAPRIL-biotin (purchased from Acro, catalog number: APL-H82F5) was diluted to 0.5 μg/mL, with 50 μl per well. After incubation at 37° C. for 1.5 h, the plate was washed 3 times with PBS. HRP (horseradish peroxidase)-labeled secondary antibody (purchased from Sigma, catalog number: S2438-250 ug) was added, and incubated at 37° C. for 1 h, and the plate was washed 5 times with PBS. TMB substrate was added at 50 μl/well, and incubated at room temperature for 10 min, then a stop solution (1.0 M HCl) was added at 50 μl/well. The OD450 nm values were read by an ELISA microplate reader (Multimode Plate Reader, EnSight, purchased from Perkin Elmer).

In experiment [2] the target is T1, human BCMA-His protein. Kind of experiment: competition ELISA vs hAPRIL-biotin on coated human BCMA; antibody 0.41 nM. The protocol:
as §1

The target of experiment [3] is T1, human BCMA-His protein. As to the kind of experiment: competition ELISA vs hAPRIL-biotin on coated human BCMA; antibody 1.23 nM. The protocol:
as §1
(In general: An ELISA detects its analyte on a solid surface through an enzyme-linked reagent.)

Experiment [4] addresses T1, human BCMA-His protein. Kind of experiment: competition ELISA vs hAPRIL-biotin on coated human BCMA; antibody 3.70 nM. The protocol: as §1
Experiment [5] addresses T1, human BCMA-His protein. As to the kind of experiment: competition ELISA vs hAPRIL-biotin on coated human BCMA; antibody 11.11 nM. As for the experimental part:
as §1

For experiment [6], the target named is T1, human BCMA-His protein. As to the kind of experiment: competition ELISA vs hAPRIL-biotin on coated human BCMA; antibody 33.33 nM. The protocol:
as §1

For experiment [7], the target named is T1, human BCMA-His protein. As to the kind of experiment: competition ELISA vs hAPRIL-biotin on coated human BCMA; antibody 100.00 nM. The protocol:
as §1

Experiment [8] concerns the target T1, human BCMA-His protein. Kind of experiment: SPR, antibody captured on Protein A chip, BCMA-His in solution, 1:1 Langmuir. The protocol:
A sample buffer and a running buffer were HBS-EP+ (10 mM HEPES, 150 mM NaCl, 3 mM EDTA and 0.05% surfactant P20) (GE Healthcare; BR-1006-69). The flow-through cell was set to 25° C. The sample block was set to 16° C. Both were pretreated with the running buffer. In each cycle, an antibody to be tested was first captured with a Protein A chip, and then a single concentration of BCMA antigen protein was injected. The binding and dissociation processes of the antibody and the antigen protein were recorded, and finally Glycine pH 1.5 (GE Helthcare; BR-1003-54) was used to complete chip regeneration. Binding was measured by injecting different concentrations of BCMA-His in solution for 240 s with a flow rate of 30 μL/min. The concentration started from 200 nM (see the detailed results for the actual concentration in the test) and was diluted at 1:1, making a total of 5 concentrations. The dissociation phase was monitored for up to 600 s and was triggered by switching from sample solution to running buffer. The surface was regenerated by washing with a 10 mM glycine solution (pH 1.5) for 30 s at a flow rate of 30 μL/min. Bulk refractive index difference was corrected by subtracting the response obtained from the goat anti-human Fc surface. Blank injection was also subtracted (=double reference). For calculation of apparent KD and other kinetic parameters, Langmuir 1:1 model was used. The binding rate (Kₐ), dissociation rate (Kdis) and binding affinity (KD) of the chimeric antibodies to human BCMA protein are shown in the table, wherein REGN5459-hlgG1 and HPN217-hHcAb antibodies were used as controls.
On the technique in general: In SPR one partner is held on a chip, and binding of the other changes the refractive index at the surface.

The target in experiment [9] is T2, human BCMA on cells (human, UniProt Q02223 1-184).
T2 construct: whole, on cells; also called H929 cells; U266 cells
T2 sequence (looked up): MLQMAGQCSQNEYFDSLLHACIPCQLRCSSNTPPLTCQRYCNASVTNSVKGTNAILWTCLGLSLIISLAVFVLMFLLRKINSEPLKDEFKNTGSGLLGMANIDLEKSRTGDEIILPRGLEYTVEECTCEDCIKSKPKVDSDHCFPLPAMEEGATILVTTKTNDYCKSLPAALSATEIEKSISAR
As to the kind of experiment: FACS, H929 cells. As for the experimental part:
(§2) H929 cells, U266 cells and RPMI8226 cells were subjected to scale-up culture in T-75 cell culture flask to logarithmic growth phase, and the cells were pipetted to single cell suspension. After counting the cells, centrifugation was performed and the cell pellet was resuspended in FACS buffer (PBS+2% fetal calf serum) to 2×10⁶ cells per ml, and the obtained suspension was added to a 96-well FACS reaction plate at 50 μl per well.
(In general: Flow cytometry measures light scatter and fluorescence of single cells or particles in a stream.)

Experiment [10] addresses T2, human BCMA on cells. As to the kind of experiment: FACS, U266 cells. The protocol: as §2
Experiment [11] has as its target T2, human BCMA on cells. Kind of experiment: FACS, RPMI8226 cells. As for the experimental part:
as §2

The target of another experiment is T3, monkey BCMA-His protein (monkey, UniProt A0A2K5UD97 1-53).
T3 construct: bought; monkey species not further stated for this product; also called monkey BCMA protein
As to the kind of experiment: ELISA, monkey BCMA-His coated. As for the experimental part: The binding activity of the control antibody to human BCMA-His protein (purchased from Acro, catalog number: BCA-H522y) and monkey BCMA-His protein (purchased from Acro, catalog number: BCA-C52H7) was detected by ELISA. The specific method was as follows: The antigen protein was diluted with PBS to a final concentration of 1 μg/mL, and then added to a 96-well ELISA plate at 50 μl per well. The plate was sealed with a plastic film and incubated overnight at 4° C., the plate was washed twice with PBS the next day, and then a blocking solution [PBS+2% (w/v) BSA] was added for blocking at room temperature for 2 h. The blocking solution was poured off and 50 μl of 100 nM serially diluted control antibody or negative control antibody was added to each well. After incubation at 37° C. for 2 h, the plate was washed 3 times with PBS. HRP (horseradish peroxidase)-labeled secondary antibody (purchased from Merck, catalog number: AP113P) was added, and incubated at 37° C. for 1 h, and the plate was washed 5 times with PBS. TMB substrate was added at 50 μl/well, and incubated at room temperature for 10 min, then a stop solution (1.0 M HCl) was added at 50 μl/well. The OD450 nm values were read by an ELISA microplate reader (Multimode Plate Reader, EnSight, purchased from Perkin Elmer). The results are shown in Tables 2 and 3 and FIGS. 1A and 1B. […]

Chain of monkey BCMA-His protein (A0A2K5UD97 entry or part of it limits assumed): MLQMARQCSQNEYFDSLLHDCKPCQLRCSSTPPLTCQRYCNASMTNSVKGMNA

B1: BCMA-mAb05 (scFv)
scFv: QGQMQQSDAELVKPGASVQISCKASGYMFTDHTFHWMRQRPEQGLEWIGYIYPRDDNTKYNEKFKGKATLTADKSSSTAYIHLNSLTSEDSAVYFCARAGYYGSSHAMDYWGQGTSVTVSSGGGGSGGGGSGGGGSDIVMTQSHKFMSTSVGDRVSITCKASQDVSTAVAWYQQKPGQSPRLLIYSASSRYTGVPDRFTGSGSGTDFTFTISSVQTEDLAVYYCQQLYSTPWTFGGGTKLEIK[human IgG1 Fc with C220S (EU numbers) not spelt out]
notes: also called BCMA human-mouse chimeric antibody (scFv-Fc)
As for B1, the OD450 with human BCMA-His protein [1] is 1.26 OD450; in the experiment with human BCMA-His protein [2] it was 1.26 OD450; in the experiment with human BCMA-His protein [3], 1.22 OD450; with human BCMA-His protein [4], 1 OD450; in the experiment with human BCMA-His protein [5] it was 0.22 OD450; in the experiment with human BCMA-His protein [6], 0.07 OD450. Also, in the experiment with human BCMA-His protein [7], the OD450 was 0.06 OD450. For the same molecule, the affinity in the experiment with human BCMA-His protein [8], expressed as Kd, was 0.0258 nM. Further, the off-rate constant (koff) (commonly the first-order rate constant of dissociation) with human BCMA-His protein [8] is 2.96e-05 s⁻¹. For the same molecule, the kon (usually the second-order rate constant of association) in the experiment with human BCMA-His protein [8] was found to be 1.15e+06 M⁻¹ s⁻¹.

B2: HPN217-hHcAb (Fc fusion)
VHH: EVQLVESGGGLVQPGRSLTLSCAASTNIFSISPYGWYRQAPGKQRELVAAIHGTSTLYADSVKGRFTISRDNAKNSIYLQMNSLRPEDTALYYCNKVPWGDYHPGNVYWGQGTQVTVSS[human IgG1 Fc with C220S (EU numbers) not spelt out]
As to B2, the results for the concentration giving a half-maximal response (EC50) in the experiment with human BCMA on cells [9], with human BCMA on cells [10] and in the experiment with human BCMA on cells [11] were 2.24 nM, 1.83 nM and 1.38 nM, respectively. In addition, the binding result with monkey BCMA-His protein is recorded as “no binding (tested: 100 nM)”.

B3: BCMA-mAb07 (scFv)
scFv: QVQLQQSGAELAKPGASVKLSCKASGYTFTDYWTHWVKQRPGQGLEWIGYINHGSGYTKYNQKFKDKATLTADKSSSTAYMQVSSLTYEDSAVYYCARLTGSYYFDYWGQGTTLTVSSGGGGSGGGGSGGGGSQIVLTQSPAIMSASPGEKVTMTCSASSSVSYMHWYQQKSGTSPKRWIYDTSKLASGVPPRFSGSGSGTSYSLTISSMEAEDAATYYCQQWSSNPLTFGAGTKLELK[human IgG1 Fc with C220S (EU numbers) not spelt out]
notes: as for B1
As to B3, the OD450 in the experiment with human BCMA-His protein [1] turned out to be 1.41 OD450; with human BCMA-His protein [2] it was 1.43 OD450; with human BCMA-His protein [3], 1.34 OD450; with human BCMA-His protein [4], 1.06 OD450; with human BCMA-His protein [5], 0.31 OD450; with human BCMA-His protein [6] it was 0.09 OD450. The OD450 with human BCMA-His protein [7] was determined as 0.08 OD450. For the same molecule, in the experiment with human BCMA-His protein [8], the affinity, expressed as Kd, was 0.792 nM. Moreover, in the experiment with human BCMA-His protein [8], the koff was 0.00106 s⁻¹. In addition, in the experiment with human BCMA-His protein [8], the kon is 1.34e+06 M⁻¹ s⁻¹.

B4: BCMA-mAb06 (scFv)
scFv: EVKLLQSGGGLVQPGGSLKLSCAASGIDFSRYWMSWVRRAPGKGLEWIGEINPDSSTINYAPSLKDEFIISRDNAKNTLYLQMSKVRSEDTALYYCAIFYYANYYAMDYWGQGTSVTVSSGGGGSGGGGSGGGGSDIVMTQSQKFMSTSVGDRVSVTCKASQNVDTNVAWYQQKPGQSPKALIYSASYRFSGVPDRFTGSGSGTDFTLTISNVQSEDLAEYFCQQYNGYPFTFASGTKLEIK[human IgG1 Fc with C220S (EU numbers) not spelt out]
notes: as for B1
As to B4, the OD450 was 1.29 OD450 with human BCMA-His protein [1]; 1.29 OD450 with human BCMA-His protein [2]; 1.16 OD450 with human BCMA-His protein [3]; 0.86 OD450 in the experiment with human BCMA-His protein [4]; 0.12 OD450 in the experiment with human BCMA-His protein [5]; 0.07 OD450 with human BCMA-His protein [6]. Besides, the OD450 with human BCMA-His protein [7] came out at 0.07 OD450. The Kd (usually the free concentration of one partner at which half of the binding sites on the other are occupied at equilibrium, for simple one-to-one binding) with human BCMA-His protein [8] was determined as 0.398 nM. Further, the koff with human BCMA-His protein [8] was found to be 0.000353 s⁻¹. Besides, in the experiment with human BCMA-His protein [8], the kon was 885000 M⁻¹ s⁻¹.
